Experimental data taken from PMC4336329 (PLoS ONE, 2015).
In all, about 310,000 compounds went through this assay and about 14,000 (4.5%) showed an effect of 50% or more. Effects have a minus sign here. The list shows a part of the results.

target: human ether-à-go-go-related gene (hERG) potassium channel (human, UniProt Q12809); assay: primary screen, population patch clamp on CHO cells stably expressing hERG
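Note: peak tail current of the secondary pulse compared with the same well before compound.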

Chain of human ether-à-go-go-related gene (hERG) potassium channel (Q12809 whole entry, looked up): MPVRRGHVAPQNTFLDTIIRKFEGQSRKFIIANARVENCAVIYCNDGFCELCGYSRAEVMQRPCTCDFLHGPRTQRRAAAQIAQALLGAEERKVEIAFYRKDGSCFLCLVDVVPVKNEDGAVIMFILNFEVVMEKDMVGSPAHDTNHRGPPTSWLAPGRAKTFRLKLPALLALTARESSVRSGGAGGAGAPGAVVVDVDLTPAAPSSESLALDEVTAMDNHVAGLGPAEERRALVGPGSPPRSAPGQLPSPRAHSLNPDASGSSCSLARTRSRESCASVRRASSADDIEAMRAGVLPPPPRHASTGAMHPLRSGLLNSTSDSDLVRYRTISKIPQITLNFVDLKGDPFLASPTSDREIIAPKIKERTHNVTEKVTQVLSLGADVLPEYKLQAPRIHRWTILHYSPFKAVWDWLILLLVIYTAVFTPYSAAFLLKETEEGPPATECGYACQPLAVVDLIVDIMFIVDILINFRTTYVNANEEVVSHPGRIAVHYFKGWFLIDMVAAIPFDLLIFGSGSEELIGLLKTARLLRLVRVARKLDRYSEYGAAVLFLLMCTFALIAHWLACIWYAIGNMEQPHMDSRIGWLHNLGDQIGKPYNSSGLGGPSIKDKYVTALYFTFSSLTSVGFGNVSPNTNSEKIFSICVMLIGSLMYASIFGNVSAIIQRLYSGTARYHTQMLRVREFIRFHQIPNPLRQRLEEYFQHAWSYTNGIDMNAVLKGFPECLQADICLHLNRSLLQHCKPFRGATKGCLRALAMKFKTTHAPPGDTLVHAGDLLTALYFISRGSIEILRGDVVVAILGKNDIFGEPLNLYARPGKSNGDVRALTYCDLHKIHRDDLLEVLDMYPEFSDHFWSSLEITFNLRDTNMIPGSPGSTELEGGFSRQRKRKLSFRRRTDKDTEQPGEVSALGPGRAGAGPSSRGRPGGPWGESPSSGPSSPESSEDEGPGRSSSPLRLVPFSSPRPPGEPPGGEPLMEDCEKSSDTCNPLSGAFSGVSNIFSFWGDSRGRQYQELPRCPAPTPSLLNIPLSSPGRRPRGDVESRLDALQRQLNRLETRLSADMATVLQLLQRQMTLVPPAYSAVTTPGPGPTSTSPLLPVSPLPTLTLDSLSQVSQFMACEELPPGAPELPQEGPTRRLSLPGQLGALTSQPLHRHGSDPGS

SMILES | hERG current change (%, negative = inhibition) at 10uM [%]
CCN(C(=O)COC(=O)CNS(=O)(=O)c1ccc(SC)c([N+](=O)[O-])c1)C1CCCCC1 | -33.6
O=Cc1ccc(OCc2nnsc2Cl)cc1 | 6.42
Cc1ccc(NC(=O)CSC2=Nc3ccccc3C3CC=NN23)c(C)c1 (centres unmarked) | -6.34
CCNC(=O)COC(=O)CCC(=O)c1cccs1 | 12.5
Cc1cccc(N(CC(=O)NCCc2ccccc2)C(=O)CCC(=O)Nc2ccccn2)c1C | -18.3
COC(=O)c1c(NC(=O)CN2C(=O)C(=O)N(CC(C)C)C2=O)sc2c1CCCCC2 | 6.61
O=C(NCC1CCCO1)c1cn(Cc2ccccc2)nc1-c1ccc(Cl)cc1 (centres unmarked) | -2.14
CCS(=O)(=O)N1Cc2ccccc2CC1C(=O)Nc1ccc(NC(C)=O)cc1 (centres unmarked) | 4.97
Cc1cccc(/C=C2\CS/C(=C\c3cccc(C)c3)C2=O)c1 | 0.505
CCOC(=O)N1CCN(c2c(NCCOC)c(=O)c2=O)CC1 | 6.96
O=C(OCc1ccccc1)c1ccccc1 | -1.94
COCCNC(=O)C1CCN(C(=O)C2CC(=O)N(c3ccc(C)cc3)C2)CC1 (centres unmarked) | 7.39
CCN(CC)c1ncnc2c1cnn2Cc1ccc(C)cc1 | -8.2
Cc1ccc(C)c(NC(=S)N2CCN(S(=O)(=O)c3ccccc3)CC2)c1 | 15.4
O=C(c1ccco1)N1N=C(c2ccc3nccnc3c2)CC1c1ccccc1 (centres unmarked) | -22.3
CN1CCN(Cc2c(C(=O)N3CCc4ccccc4C3)nc3ccc(Cl)cn23)CC1 | -51.8
CCC(C)NC(=O)c1cnn2c1NC(c1ccc3c(c1)OCO3)CC2C(F)(F)F (centres unmarked) | -1.5
COc1ccc(C(=O)OCC(=O)NC2CC2)cc1S(=O)(=O)N(C)Cc1ccccc1 | -53.8
CC1CCc2sc(C(=O)N/N=C/C3CCCCC3)cc2C1 (centres unmarked) | 2.4
COc1ccc(/C=C/C(=O)NCCCc2ccccc2)cc1 | -46.8
CCc1c(C)nc(N)n2c(SCC(=O)Nc3ccccc3)nnc12 | 12.5
CCOc1ccc(C(Nc2ccc(C)cc2)P2(=O)OCCCO2)cc1 (centres unmarked) | -13.3
Cc1cccc(/C(N)=N/OC(=O)c2ccoc2C)c1 | 6.1

SMILES | hERG current change (%, negative = inhibition) at 10uM [%]
CCOC(=O)C1CCN(S(=O)(=O)c2ccc(C(=O)OC)cc2)CC1 | -1.7
COc1ccc(NC(=O)C(=O)NCC2CCCN2S(=O)(=O)c2cc(C)ccc2C)cc1 (centres unmarked) | -25.1
COc1ccccc1C(=O)NNC(=O)C1CC=CCC1 (centres unmarked) | 18.7
O=C(NCCCC1CCCC1)C1CCC(=O)N(Cc2cccc(F)c2)C1 (centres unmarked) | -15.2
Cn1c(SCC(=O)N/N=C/c2ccccn2)nnc1-c1ccccc1 | 2.72
COC(=O)c1ccc(NC(=O)CNC(=O)C2CCCCC2)cc1 | 4.19
Cn1c(=O)[nH]c(=O)c2c1nc(NCCCn1ccnc1)n2CCOc1ccccc1 | -4.75
CC(C)(C)c1ccc(C(=O)N2CCN(c3ncccn3)CC2)cc1 | -10.9
COc1ccc(C)cc1NC(=O)NNC(=O)C(C)Oc1ccc([N+](=O)[O-])cc1 (centres unmarked) | -25.5
Cc1cc(=O)[nH]c(SCC(=O)NCc2ccco2)n1 | 17.9
COc1ccc(/C=C(\C#N)C(=O)NCc2cccs2)cc1OC | -18.4
Cn1c(=O)n(C)c2cc(NC(=O)CSc3ccccc3)ccc21 | 4.01
CCC(NC(=O)c1ccc(C#CC2(O)CCCCC2)cc1)C(=O)O (centres unmarked) | 10.5
Cc1ccc(Cn2nnc3c(=O)n(CC(=O)OCc4ccccc4)cnc32)cc1 | -18.2
CCc1ccccc1NC(=O)c1nnn(CC(=O)Nc2ccccc2C)c1N | 2.13
COc1ccccc1/C=C/C=N/NC(=O)Cc1cccs1 | -5.65
Cc1ccc(C(=O)N2CCCCC2)cc1S(=O)(=O)N1CCOCC1 | 22
COc1ccc(C(=O)Nc2ccc(S(=O)(=O)N3CCCC3)cc2)cc1 | -12.4
COc1ccc(N2CCN(S(=O)(=O)c3cc4c(cc3C)N(C(C)=O)CCO4)CC2)cc1 | -5.61
O=C(O)c1cccc(NC(=S)NC(=O)c2ccc3ccccc3c2)c1 | 5.36
O=C(COC(=O)CNC(=O)C1CCCCC1)Nc1ccc2ccccc2c1 | -1.78
CN(C)S(=O)(=O)c1cccc(NC(=S)N/N=C/c2cccc(O)c2)c1 | 11.9
Nn1c(COc2ccccc2)nc2ccccc2c1=O | -5.35

SMILES | hERG current change (%, negative = inhibition) at 10uM [%]
O=C(OCc1c(F)cccc1Cl)c1cccc(S(=O)(=O)N2CCOCC2)c1 | -11.3
CCOC(=O)c1[nH]c(C)c(C(=O)N2CCN(c3ccc(OC)cc3)CC2)c1C | -10.5
CCOC(=O)[C@H]1[C@H]2COc3ccc(C)cc3[C@@H]2N2C(=O)c3ccccc3NC(=O)[C@@]12C | -26.1
Cc1ccc(C(=O)C2C(=O)c3ccccc3C2=O)cc1 | 3.61
COc1ccccc1/C=N/NC(=O)c1ccc(-c2ccccc2)cc1 | 1.05
O=C(c1ccccc1)[C@H]1CC=CC[C@H]1C(=O)O | 0.433
CCOc1ccc2nc(NCCCNS(=O)(=O)c3ccc(F)cc3)c(C#N)cc2c1 | 6.2
N#CCSc1nc2scc(-c3cccs3)c2c(=O)n1CCc1ccccc1 | 9.89
COc1ccccc1-n1nc(C(=O)O)c2ccccc2c1=O | 8.83
CC(c1nnc(SCC(=O)N2CC(=O)Nc3ccccc32)n1Cc1ccccc1)N(C)C (centres unmarked) | 5.73
CCNC(=O)NC(=O)CN(C)c1ccccc1 | 10.5
O=C(CCC(=O)Nc1ccccc1Cl)NNC(=O)NC1CCCCC1 | -16.7
CCOC(=O)N1CCN(C(=O)C2CCN(Cc3ccc(O)c(OCC)c3)CC2)CC1.O=C(O)C(=O)O | 20.2
O=C(C[n+]1ccccc1)N/N=C/c1cc(Br)ccc1F.[Cl-] | 0.815
Cc1nc2ccc(NS(=O)(=O)c3ccc(Br)cc3)cc2s1 | 5.95
CCOCCCNS(=O)(=O)c1ccc2c(c1)CCN2C(=O)CC | 5.75
O=C(CC1C(=O)NCCN1Cc1cccc(F)c1)NC1CCC1 (centres unmarked) | -3.12
Cn1c(=O)c2[nH]c(N3CCN(c4ccccn4)CC3)nc2n(C)c1=O | 20.6
CCOc1ccc(N(CC(=O)NCC2CCCO2)S(=O)(=O)c2ccc(OC)c(OC)c2)cc1 (centres unmarked) | 0.188
Nn1c(-c2ccc(F)cc2)nc2ccccc2c1=O | 17.9
CCOc1cc(/C=C2\SC(N3CCCCC3)=NC2=O)ccc1O | 3.1
O=C1Nc2c(c(=O)[nH]c(=O)n2-c2ccc(F)cc2)C1(NS(=O)(=O)c1ccccc1)C(F)(F)F (centres unmarked) | 2.26
CC(=O)Nc1cccc(NC(=O)C2CC3CCC2C3)c1 (centres unmarked) | -3.64

SMILES | hERG current change (%, negative = inhibition) at 10uM [%]
COC(=O)CCSc1nc(N2CCOCC2)c2c(c1C#N)CC(C)(C)OC2 | 7.63
Cc1c(Cl)cccc1NC(=O)c1cc(S(=O)(=O)N2CCOCC2)cn1C | -12.5
COc1ccc(NC(=O)Nc2ccc3nc(C)c(C)nc3c2)cc1 | 14.5
Cn1c(=O)n(CCCOc2ccc(Cl)cc2)c2ccccc21 | -13.7
NS(=O)(=O)c1ccc(CCNS(=O)(=O)c2cccc3nsnc23)cc1 | 14.1
Cc1ccc(S(=O)(=O)N[C@@H](C)C(=O)N2CCC(C(=O)N[C@@H](Cc3ccccc3)C(=O)O)CC2)cc1 | -4.39
Cc1ccc(NC(=O)CCC(=O)OC(C)C(=O)c2ccccc2)cc1 (centres unmarked) | 17.7
CC(NC(=O)c1ccc(Cl)cc1)c1nnc(SCc2ccc([N+](=O)[O-])cc2)n1C (centres unmarked) | -19.4
O=[N+]([O-])c1ccccc1N/N=C/c1ccccc1 | 12.8
Cc1sc(CO)c(Sc2ccccc2)c1C(=O)O | 2.84
CC1CCN(C(=O)c2cccc(NC(=O)c3cccs3)c2)CC1 | -19.9
CC1(C)C(=O)OC(c2cccs2)C2(CCCCC2)C1=O (centres unmarked) | 1.39
Cc1ccccc1C(=O)Nc1ccc(S(=O)(=O)N2CCOCC2)cc1 | 1.55
CC(C)N1CC(C(=O)Nc2ccccc2)CC1=O (centres unmarked) | 11.4
COC(=O)CN1C(=O)COc2ccc(S(=O)(=O)N3CCOCC3)cc21 | 12.6
CCCCOc1ccc(C2C(=O)N(C3CCCCC3)CC(=O)N2CC2CCCO2)cc1 (centres unmarked) | -37.3
COC(=O)c1sc(N2CCN(c3ccc(Cl)cc3)CC2)nc1N | 10.7
COc1ccc(Oc2c(-c3ccc(O)cc3O)n[nH]c2C)cc1 | 10.4
COc1ccc(COC(=O)c2ccc(Br)c(S(=O)(=O)N3CCOCC3)c2)cc1F | -10.4
CCN(CC)CCNC(=O)c1ccc(NC(=O)c2ccc(F)cc2F)cc1.Cl | -36
